Test results reported in US20200181601A1 (INSTITUT PASTEUR, published 2020).
Where a chain is given by its changes, count along the chain named.

T1: PulD-N, soluble monomeric fragment corresponding to the N-terminal region of PulD from Klebsiella oxytoca (Klebsiella oxytoca, UniProt P15644 28-264)
T1 construct: domain: N-terminal region of PulD; also called N-terminal domain of PulD
T1 sequence: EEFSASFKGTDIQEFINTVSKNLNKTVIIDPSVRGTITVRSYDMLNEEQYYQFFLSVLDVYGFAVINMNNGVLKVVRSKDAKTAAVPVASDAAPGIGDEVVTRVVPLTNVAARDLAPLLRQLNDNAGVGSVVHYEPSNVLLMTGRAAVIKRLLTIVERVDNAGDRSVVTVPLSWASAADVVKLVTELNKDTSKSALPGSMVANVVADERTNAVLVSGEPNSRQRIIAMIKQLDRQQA

B1: clone 6 (anti-PulD-N Sac7d variant from library 14, round 5) (designed binder)
chain: MRGSHHHHHHGSVKVKFVLGGEEKEVDTSKIRHVYRYGKHVTFSYDDNGKLGLGLVKEKDAPKELLDMLARAEREKKLN
notes: also called Sac7*6
B2: clone 33 (anti-PulD-N Sac7d variant from library 14, round 5) (designed binder)
chain: MRGSHHHHHHGSVKVKFTWYGEEKEVDTSKIMSVCRWGKRVAFSYDDNGKIDYGLVDEKDAPKELLDMLARAEREKKLN
notes: also called Sac7*33
B3: clone 39 (anti-PulD-N Sac7d variant from library 14, round 5) (designed binder)
chain: MRGSHHHHHHGSVKVKFCWEGEEKEVDTSKIRHVYRYGKYVTFSYDDNGKLGLGLVNEKDAPKELLDMLARAA
B4: clone 40 (anti-PulD-N Sac7d variant from library 14, round 5) (designed binder)
chain: MRGSHHHHHHGSVKVKFGEHGEEKEVDTSKIMSVVRFGKWVCFRYDDNGKAGYGAVLEKDAPKELLDMLARAEREKKLN
notes: also called Sac7*40
B5: clone 41 (anti-PulD-N Sac7d variant from library 14, round 5) (designed binder)
chain: B4 chain with G18V, E19M, H20S

What follows are binders tested against T1, PulD-N, soluble monomeric fragment … (assay: competition SPR, free PulD-N as competitor).

Row | Binder | Kd [nM]
1 | B1 | 0.14
2 | B2 | 0.17
3 | B3 | 1.1
4 | B4 | 0.9
5 | B5 | 1.1

What follows are binders tested against T1, PulD-N, soluble monomeric fragment … (assay: SPR (BIAcore), biotinylated PulD-N on streptavidin chip, global kinetic fit).

Row | Binder | koff [s⁻¹] | kon [M⁻¹ s⁻¹]
6 | B1 | 0.0025 | 1.9e+07
7 | B2 | 0.0032 | 1.7e+07
8 | B3 | 0.0086 | 1.7e+07
9 | B4 | 0.014 | 2.3e+07
10 | B5 | 0.012 | 2e+07

These binders were tested against T1, PulD-N, soluble monomeric fragment … (assay: SPR kinetic analysis).

Row | Binder | Kd [nM]
11 | B1 | 0.13
12 | B2 | 0.19
13 | B3 | 0.52
14 | B4 | 0.6
15 | B5 | 0.61

Each binder was assayed against T1, PulD-N, soluble monomeric fragment … (assay: SPR kinetics, 300 mM NaCl against the running buffer (data not shown)).

Row | Binder | factor of reduction of the association kinetics at 300 mM NaCl [fold]
16 | B1 | 1.3
17 | B2 | 1.3
18 | B3 | 1.3
19 | B4 | 1.3
20 | B5 | 1.3
